The other results are listed elsewhere or left out. Where only a bound is given, the exact number is not on record here.

B1: PhoQ; a variant is named by its letters at X, in order, P23837 (parent)
chain: MKKLLRLFFPLSLRVRFLLATAAVVLVLSLAYGMVALIGYSVSFDKTTFRLLRGESNLFYTLAKWENNKLHVELPENIDKQSPTMTLIYDENGQLLWAQRDVPWLMKMIQPDWLKSNGFHEIEADVNDTSLLLSGDHSIQQQLQEVREDDDDAEMTHSVAVNVYPATSRMPKLTIVVVDTIPVELKSSYMVWSWFIYVLSANLLLVIPLLWVAAWWSLRPIEALAKEVRELEEHNRELLNPATTRELTSLVRNLNRLLKSERERYDKYRTTLTDLTHSLKTPLXXLQXXLRSLRSEKMSVSDAEPVMLEQISRISQQIGYYLHRASMRGGTLLSRELHPVAPLLDNLTSALNKVYQRKGVNISLDISPEISFVGEQNDFVEVMGNVLDNACKYCLEFVEISARQTDEHLYIVVEDDGPGIPLSKREVIFDRGQRVDTLRPGQGVGLAVAREITEQYEGKIVAGESMLGGARMEVIFGRQHSAPKDE

Variants of B1 are the subject of the assay. The assay is described as follows: enrichment ratio after two sorts for PhoP signalling (ratio (wild type AVST 3.29)); higher = more functional. As to conditions: with PhoP (E. coli).
Turning to PVYC, the enrichment ratio is at most 0.25.
The value for LGQT was at most 0.25; that for GQWS was at most 0.25.
The result for SNHF reads at most 0.25; that for EVDK, at most 0.25.
Regarding LRIT, the enrichment ratio was at most 0.25.
Regarding DANA, the enrichment ratio was at most 0.25.
In the case of WVYS, the enrichment ratio is at most 0.25.
In the case of FNMH, the enrichment ratio is at most 0.25.
On to GLCQ, for which the enrichment ratio was 8.58.
On to WTWS, for which the enrichment ratio was at most 0.25.
For LTQR, the enrichment ratio is at most 0.25.
Take QGDL: the enrichment ratio came to 4.84.
Take PRLR: the enrichment ratio is at most 0.25.
As to REKF, the enrichment ratio was at most 0.25.
In the case of SCSL, the enrichment ratio was determined as 9.02.
The value for NNKC was at most 0.25; that for QENP was at most 0.25.
In the case of YDRV, the enrichment ratio was at most 0.25.
On to YEEE, for which the enrichment ratio was at most 0.25.
The result for RPRY reads at most 0.25.
WSPM: the enrichment ratio was at most 0.25.
The value for YKCD was at most 0.25.
As to ARSH, the enrichment ratio was at most 0.25.
On to DPSQ, for which the enrichment ratio was at most 0.25.
On to VFPY, for which the enrichment ratio is at most 0.25.
Turning to TTQW, the enrichment ratio was at most 0.25.
The value for VPAQ was at most 0.25; that for QYRI was at most 0.25.
Consider FEMT, for which the enrichment ratio amounted to 3.56.
For the variant LRHD, the enrichment ratio is at most 0.25.
Take PDSP: the enrichment ratio is at most 0.25.
Regarding DRKS, the enrichment ratio is at most 0.25.
MHLL: the enrichment ratio was at most 0.25.
In the case of YTKL, the enrichment ratio is at most 0.25.
With MITI, the enrichment ratio worked out at 14.6.
Consider GNKV, for which the enrichment ratio was at most 0.25.
The result for EHLH reads at most 0.25.
Take TMCT: the enrichment ratio is 19.5.
Turning to QFQQ, the enrichment ratio was at most 0.25.
Regarding MAII, the enrichment ratio is at most 0.25.
Consider YRTV, for which the enrichment ratio was at most 0.25.
As to KCFA, the enrichment ratio is at most 0.25.
The value for RRAG was at most 0.25; that for TVFV was at most 0.25.
For GAYI, the enrichment ratio is at most 0.25.
Consider FGVQ, for which the enrichment ratio was at most 0.25.
For the variant KNDN, the enrichment ratio is at most 0.25.
The result for FPAA reads at most 0.25.
Consider LHWW, for which the enrichment ratio is at most 0.25.
For WDST, the enrichment ratio is at most 0.25.
For the variant FVTL, the enrichment ratio is 1.5.
In the case of DVLP, the enrichment ratio was at most 0.25.
Take LETT: the enrichment ratio is at most 0.25.
For the variant RYYI, the enrichment ratio was at most 0.25.
On to HHWM, for which the enrichment ratio is at most 0.25.
For TMAW, the enrichment ratio is at most 0.25.
For HQHW, the enrichment ratio was at most 0.25.
On to MKWE, for which the enrichment ratio was at most 0.25.
Turning to VHCM, the enrichment ratio is at most 0.25.
On to KGQH, for which the enrichment ratio was at most 0.25.
With NNRV, the enrichment ratio is at most 0.25.
The result for GCRH reads at most 0.25; that for GAHN, at most 0.25.
As for ECAD, the enrichment ratio was at most 0.25.
The value for GIID was at most 0.25.
For the variant KSKM, the enrichment ratio is at most 0.25.
On to SDLF, for which the enrichment ratio is at most 0.25.
In the case of HFEP, the enrichment ratio was at most 0.25.
On to RFCR, for which the enrichment ratio is at most 0.25.
In the case of RYPV, the enrichment ratio was at most 0.25.
As to YSFT, the enrichment ratio is at most 0.25.
The value for GTKD was at most 0.25; that for RRDN was at most 0.25; that for VETA was at most 0.25.
Regarding QVYN, the enrichment ratio is at most 0.25.
Regarding KSEA, the enrichment ratio is at most 0.25.
As to VPNK, the enrichment ratio is at most 0.25.
In the case of RPGT, the enrichment ratio is at most 0.25.
On to GRDK, for which the enrichment ratio was at most 0.25.
Turning to RKPC, the enrichment ratio is at most 0.25.
With VDSA, the enrichment ratio is at most 0.25.
The result for ISYI reads at most 0.25.
On to NIPE, for which the enrichment ratio was at most 0.25.
With SLHH, the enrichment ratio was at most 0.25.
The value for DGSS was at most 0.25.
Take SICC: the enrichment ratio is 17.3.
The value for YKHR was at most 0.25; that for VMYC was at most 0.25.
The result for NFRF reads at most 0.25.
NDLY: the enrichment ratio is at most 0.25.
SRVV: the enrichment ratio is at most 0.25.
As for HQLQ, the enrichment ratio was at most 0.25.
On to SVTS, for which the enrichment ratio came to 7.51.
The result for SFFQ reads at most 0.25; that for DWKS, at most 0.25.
The result for RRYC reads at most 0.25; that for FNCR, at most 0.25; that for NAFS, at most 0.25.
The result for TNFF reads at most 0.25.
Regarding HIHI, the enrichment ratio was at most 0.25.
Turning to SETT, the enrichment ratio was determined as 12.6.
With NNHG, the enrichment ratio was at most 0.25.
The value for MPSS was at most 0.25; that for ECHF was at most 0.25.
With ADLC, the enrichment ratio worked out at 3.37.
On to FNSY, for which the enrichment ratio was at most 0.25.
As to PLMA, the enrichment ratio is at most 0.25.
Turning to GHQQ, the enrichment ratio is at most 0.25.
As to MRCY, the enrichment ratio was at most 0.25.
Consider FNWI, for which the enrichment ratio was at most 0.25.
With THSR, the enrichment ratio was at most 0.25.
On to GLDC, for which the enrichment ratio was at most 0.25.
WTHM: the enrichment ratio was at most 0.25.
The result for DLCV reads at most 0.25; that for PQNV, at most 0.25; that for WLHV, at most 0.25.
As to YEIT, the enrichment ratio is at most 0.25.
For LCER, the enrichment ratio is at most 0.25.
ESTI: the enrichment ratio is at most 0.25.
On to ESLK, for which the enrichment ratio was at most 0.25.
The result for EGYS reads at most 0.25; that for WKNW, at most 0.25.
RMVK: the enrichment ratio is at most 0.25.
For the variant YWTR, the enrichment ratio is at most 0.25.
For LWAL, the enrichment ratio was at most 0.25.
For KSHG, the enrichment ratio was at most 0.25.
LKKI: the enrichment ratio was at most 0.25.
For the variant YCMV, the enrichment ratio stood at 0.293.
The value for HCKH was at most 0.25; that for SHAN was at most 0.25.
As to LSWT, the enrichment ratio worked out at 1.82.
Regarding NDIP, the enrichment ratio is at most 0.25.
With RWQC, the enrichment ratio was at most 0.25.
As to FMQM, the enrichment ratio is at most 0.25.
For CFFN, the enrichment ratio is at most 0.25.
PVHV: the enrichment ratio is at most 0.25.
Turning to WCMK, the enrichment ratio was at most 0.25.
The value for PKVE was at most 0.25; that for NDQH was 0.507; that for LMPL was at most 0.25.
Turning to VPTD, the enrichment ratio is at most 0.25.
For the variant VQSN, the enrichment ratio was at most 0.25.
EAPW: the enrichment ratio was at most 0.25.
The result for AVNM reads at most 0.25; that for YVQR, at most 0.25; that for VQCS, at most 0.25.
For the variant DDKA, the enrichment ratio was at most 0.25.
In the case of QDAW, the enrichment ratio is at most 0.25.
The value for YVNY was at most 0.25; that for FGFP was at most 0.25.
With QAFK, the enrichment ratio is at most 0.25.
On to PASW, for which the enrichment ratio is at most 0.25.

Values taken from a collection of fitness landscapes (doi:10.1126/science.1257360).
